Source: the supplement of paper PMC9446081
Among all 39,000 compounds or so, about 220 (0.56%) showed activity. The list shows a part of the results.
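Also: static incubation at 37 °C against the wild-type strain, values averaged over two biological replicates.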

These compounds were tested on Escherichia coli K-12 BW25113 (assay: relative growth (OD600 normalised to plate interquartile mean) (fraction); higher = less growth inhibition, active = 0.2 or less). Conditions: 50 µM; LB; incubation time: overnight (16-24 h).
In the case of `C[C@H]1CN([C@@H](C)CO)C(=O)c2cccc(NC(=O)c3nc4ccccc4s3)c2O[C@@H]1CN(C)Cc1ccc(C(=O)Nc2ccccc2N)cc1`, the relative growth is reported as inactive: 1.01. In the case of `COc1ccc(NC(=O)N(C)C[C@H]2Oc3ccc(NC(=O)CCCCCC(=O)Nc4ccccc4N)cc3C(=O)N([C@@H](C)CO)C[C@@H]2C)cc1`, the relative growth is reported as inactive: 0.957. With `C[C@@H]1CCCCO[C@@H](CN(C)Cc2ccc(Cl)c(Cl)c2)[C@H](C)CN([C@@H](C)CO)C(=O)c2cc(NS(=O)(=O)c3ccccc3)ccc2O1` the relative growth was inactive: 1.05. With `C[C@H]1CN([C@@H](C)CO)C(=O)c2cccc(NC(=O)Nc3ccc(C(F)(F)F)cc3)c2O[C@@H]1CN(C)S(=O)(=O)c1ccc(F)cc1` the relative growth was inactive: 0.804. With `C[C@@H]1CN([C@H](C)CO)C(=O)CCCn2nncc2CO[C@@H]1CN(C)C(=O)c1ccc(N2CCN(C)CC2)cc1` the relative growth was inactive: 1.01. For `C[C@@H]1CN([C@@H](C)CO)C(=O)c2cccc(NC(=O)Nc3ccccc3)c2O[C@@H]1CN(C)Cc1ccc(C(F)(F)F)cc1`, the relative growth was inactive: 1.01. With `CO[C@H]1CN(C)C(=O)c2cc(NC(=O)NC3CCCCC3)ccc2OC[C@@H](C)N(CCc2ccccc2)C[C@H]1C` the relative growth was inactive: 1.02. `C[C@H]1CN([C@@H](C)CO)C(=O)c2cccc(NC(=O)C3CCCCC3)c2O[C@@H]1CN(C)C(=O)Nc1ccc(C(F)(F)F)cc1` was tested, and the relative growth was inactive: 0.856. In the case of `C[C@H](CO)N1C[C@H](C)[C@@H](CN(C)S(=O)(=O)c2cn(C)cn2)Oc2ccc(NC(=O)CCCN(C)C)cc2C1=O`, the relative growth is reported as inactive: 0.939. For `CC(C)NC(=O)[C@@H](N)c1ccccc1`, the relative growth was inactive: 0.912. For `Cc1ccc(S(=O)(=O)Nc2ccc3c(c2)C(=O)N([C@@H](C)CO)C[C@@H](C)[C@H](CN(C)CC2CCCCC2)OCCCC[C@H](C)O3)cc1`, the relative growth was inactive: 0.961. For `C[C@@H]1CN([C@H](C)CO)C(=O)Cc2cc(NS(=O)(=O)c3cn(C)cn3)ccc2O[C@H]1CN(C)S(=O)(=O)c1ccc(F)cc1`, the relative growth was inactive: 0.962. `CC1(C(=O)O)CCC2(C)CCC3(C)C(=CC(=O)C4C5(C)CCC(O)C(C)(C)C5CCC43C)C2C1` (configuration not stated) was tested, and the relative growth was inactive: 0.894. For `C[C@H]1CN([C@@H](C)CO)S(=O)(=O)c2ccc(C#Cc3cccnc3)cc2O[C@H]1CN(C)CC1CCOCC1`, the relative growth was inactive: 1.02. In the case of `C[C@@H]1CN([C@@H](C)CO)C(=O)c2cccc(NS(C)(=O)=O)c2O[C@@H]1CN(C)C(=O)NC1CCCCC1`, the relative growth is reported as inactive: 0.968. In the case of `CCN1C(C)(C)CC(Oc2ccc(C(=O)Nc3ccc(NC(=O)Nc4cc(C(C)(C)C)on4)cc3)nc2)CC1(C)C`, the relative growth is reported as inactive: 0.844. With `CN(Cc1cnc2nc(N)nc(N)c2n1)c1ccc(C(=O)N[C@@H](CCC(=O)O)C(=O)O)cc1` the relative growth was inactive: 1.01. For `C[C@@H]1CCCCO[C@H](CN(C)C(=O)Nc2ccc(C(F)(F)F)cc2)[C@H](C)CN([C@@H](C)CO)C(=O)c2cc(NS(=O)(=O)c3cccs3)ccc2O1`, the relative growth was inactive: 0.961. `C[C@@H]1CN([C@H](C)CO)C(=O)c2c(c3ccccc3n2C)-c2ccccc2CO[C@@H]1CN(C)C(=O)Nc1ccc(F)cc1` was tested, and the relative growth was inactive: 1.01. For `Cc1ccc(S(=O)(=O)Nc2ccc3c(c2)C(=O)N([C@@H](C)CO)C[C@H](C)[C@H](CN(C)C(=O)Nc2cccc4ccccc24)O3)cc1`, the relative growth was inactive: 1.01. In the case of `C[C@@H]1CN([C@H](C)CO)C(=O)c2cc(-c3ccncc3)cnc2O[C@@H]1CN(C)S(=O)(=O)c1ccccc1`, the relative growth is reported as inactive: 0.959. With `C[C@H](CO)N1C[C@H](C)[C@@H](CN(C)Cc2ccc(-c3ccccc3)cc2)Oc2ccc(NS(=O)(=O)c3ccc(Cl)cc3)cc2C1=O` the relative growth was inactive: 1.05. `C[C@@H]1CN([C@@H](C)CO)C(=O)CCCn2cc(nn2)CO[C@@H]1CN(C)S(=O)(=O)c1ccc(Oc2ccccc2)cc1` was tested, and the relative growth was inactive: 1.04. With `CN(C)CCCCCCNC(=O)[C@@H]1C[C@@H]2C(=O)N[C@@H](CCCC[N+](C)(C)C)C(=O)N2[C@@H]1c1cccc(OCCO)c1` the relative growth was inactive: 1.01. With `C[C@@H]1CCCCO[C@H](CN(C)C(=O)NC2CCCCC2)[C@@H](C)CN([C@H](C)CO)C(=O)c2cc(NC(=O)CCCCCC(=O)Nc3ccccc3N)ccc2O1` the relative growth was inactive: 0.958. With `CC(C)NC(=O)N(C)C[C@@H]1Oc2c(NS(=O)(=O)c3ccccc3)cccc2C(=O)N([C@@H](C)CO)C[C@H]1C` the relative growth was inactive: 0.949. `N#CCC(=O)N1CCCCC1` was tested, and the relative growth was inactive: 0.992. For `COc1ccc(S(=O)(=O)Nc2cccc3c2O[C@H](CN(C)S(=O)(=O)c2cccs2)[C@@H](C)CN([C@@H](C)CO)C3=O)cc1`, the relative growth was inactive: 1. `CCCNC(=O)N1C[C@@H](C)[C@@H](OC)CN(C)C(=O)c2ccc(NS(=O)(=O)CC(F)(F)F)cc2OC[C@H]1C` was tested, and the relative growth was inactive: 0.985. With `Cc1ccc(S(=O)(=O)Nc2ccc3c(c2)C(=O)N(C)[C@H]2CC[C@H](CC(=O)NCCc4ccncc4)O[C@H]2CO3)cc1` the relative growth was inactive: 1. With `COc1cccc(S(=O)(=O)N2C[C@@H](O)COC[C@@H]3O[C@@H](CC(=O)N4CCN(c5ccccc5)CC4)CC[C@H]32)c1` the relative growth was inactive: 0.977. With `Cc1ncc[nH]1` the relative growth was inactive: 1.03. For `C[C@H](CO)N1C[C@H](C)[C@@H](CN(C)S(C)(=O)=O)Oc2cc(-c3ccccc3F)ccc2S1(=O)=O`, the relative growth was inactive: 0.983. `C[C@H]1CN([C@@H](C)CO)C(=O)CCCn2cc(nn2)CO[C@@H]1CN(C)C(=O)Nc1cccc(C(F)(F)F)c1` was tested, and the relative growth was inactive: 0.984. In the case of `NCCCCCCNC(=O)[C@@H]1C[C@@H]2C(=O)N3CCC[C@H]3C(=O)N2[C@@H]1c1cccc(OCCO)c1`, the relative growth is reported as inactive: 0.999. In the case of `Cc1ccc(N(c2ccc(C)cc2)c2cccnc2)cc1`, the relative growth is reported as inactive: 1.02. In the case of `COc1ccc(CN(C)C[C@@H]2OCCCC[C@@H](C)Oc3ccc(NS(=O)(=O)c4ccccc4)cc3C(=O)N([C@@H](C)CO)C[C@H]2C)cc1`, the relative growth is reported as inactive: 0.967. `COc1ccc(NC(=O)Nc2ccc3c(c2)C(=O)N([C@H](C)CO)C[C@H](C)[C@@H](CN(C)C(=O)Nc2ccc4c(c2)OCO4)OCCCC[C@H](C)O3)cc1` was tested, and the relative growth was inactive: 1.02. In the case of `C[C@@H]1CN([C@@H](C)CO)C(=O)c2cc(NC(=O)C3CC3)ccc2O[C@H]1CN(C)Cc1ccc(C(=O)O)cc1`, the relative growth is reported as inactive: 0.965. In the case of `C[C@@H]1CCCCO[C@@H](CN(C)C(=O)C2CCCCC2)[C@H](C)CN([C@H](C)CO)C(=O)c2cc(NC(=O)C3CCCCC3)ccc2O1`, the relative growth is reported as inactive: 0.976. For `Cc1noc(C)c1NC(=O)N(C)C[C@H]1OCCCC[C@@H](C)Oc2ccc(NC(=O)c3ccccc3)cc2C(=O)N([C@@H](C)CO)C[C@H]1C`, the relative growth was inactive: 0.997. For `COC(=O)CCCCC(=O)c1[nH]c(=O)[nH]c1C`, the relative growth was inactive: 1.03. For `C[C@H](CO)N1C[C@H](C)[C@H](CN(C)S(=O)(=O)c2ccccc2)Oc2ncc(-c3ccncc3)cc2C1=O`, the relative growth was inactive: 0.967. `COc1ccc(CN(C)C[C@H]2OCCCC[C@H](C)Oc3ccc(NS(=O)(=O)c4cccs4)cc3C(=O)N([C@@H](C)CO)C[C@@H]2C)cc1` was tested, and the relative growth was inactive: 1. For `C[C@H](CO)N1C[C@H](C)[C@H](CN(C)Cc2ccc(-c3ccccc3)cc2)Oc2ccc(NC(=O)Cc3ccccc3)cc2C1=O`, the relative growth was inactive: 1.02. `COc1ccc(NC(=O)N(C)C[C@@H]2Oc3ncc(C#C[C@@H](C)O)cc3C(=O)N([C@@H](C)CO)C[C@H]2C)cc1` was tested, and the relative growth was inactive: 1. With `CC1=CC(C)(C)N(C(=O)/C=C/c2ccccc2)c2ccc(C)cc21` the relative growth was inactive: 1.06. In the case of `CC(C)NC(=O)N(C)C[C@H]1Oc2ccc(NC(=O)Cn3cnnn3)cc2C(=O)N([C@H](C)CO)C[C@@H]1C`, the relative growth is reported as inactive: 0.982. In the case of `Cc1noc(N)c1C(=O)O`, the relative growth is reported as inactive: 1.01. For `C[C@@H]1CN([C@H](C)CO)S(=O)(=O)c2ccc(C#CC(C)(C)O)cc2O[C@H]1CN(C)C(=O)C1CCCCC1`, the relative growth was inactive: 0.986. In the case of `C[C@@H]1CN([C@H](C)CO)C(=O)c2cc(C#CC3(O)CCCC3)cnc2O[C@H]1CN(C)C(=O)CN(C)C`, the relative growth is reported as inactive: 1.01. With `Cc1ccc(Nc2nc3ccccc3s2)cc1Cl` the relative growth was inactive: 0.989. `C[C@@H]1CN([C@H](C)CO)C(=O)c2cc(NS(=O)(=O)c3ccc(Cl)cc3)ccc2O[C@@H]1CN(C)Cc1ccc(C(=O)Nc2ccccc2N)cc1` was tested, and the relative growth was inactive: 0.999. `O=C(O)CSCC(=O)N[C@H]1CCSC1=O` was tested, and the relative growth was inactive: 0.997. In the case of `C[C@@H]1CN([C@@H](C)CO)C(=O)Cc2cc(NC(=O)CCN3CCOCC3)ccc2O[C@@H]1CN(C)S(=O)(=O)c1ccc(Cl)cc1`, the relative growth is reported as inactive: 1.01. `C[C@@H]1CCCCO[C@H](CN(C)Cc2ccc(Cl)c(Cl)c2)[C@H](C)CN([C@@H](C)CO)C(=O)c2cc(NS(=O)(=O)c3ccc(F)cc3)ccc2O1` was tested, and the relative growth was inactive: 0.99. For `Cc1ccc(F)cc1NC(=O)CN`, the relative growth was inactive: 0.987. `COc1ccc(CN(C)C[C@H]2OCCCC[C@@H](C)Oc3ccc(NC(=O)NC(C)C)cc3C(=O)N([C@H](C)CO)C[C@H]2C)cc1` was tested, and the relative growth was inactive: 1.02. `COc1ccc(-c2ccc3c(c2)O[C@@H](CN(C)CC2CCOCC2)[C@H](C)CN([C@H](C)CO)S3(=O)=O)cc1` was tested, and the relative growth was inactive: 1.01. In the case of `C[C@H](CO)N1C[C@H](C)[C@H](CN(C)C(=O)NC2CCCCC2)OCCCC[C@H](C)Oc2ccc(NC(=O)C3CCCCC3)cc2C1=O`, the relative growth is reported as inactive: 0.965. With `O=C(CN1CCOCC1)N[C@@H]1CC[C@H](CCn2cc(C3CC3)nn2)O[C@H]1CO` the relative growth was inactive: 1. In the case of `C[C@H]1CN([C@@H](C)CO)C(=O)c2cccc(NS(=O)(=O)c3cccs3)c2O[C@@H]1CN(C)Cc1ccncc1`, the relative growth is reported as inactive: 1.01.
